The supplement of paper PMC12632987
In all, about 4,500 sequences were measured (“median log2 fold change of GCK-ALFA target abundance (FLAG IP / Myc IP barcode read proportion)”: median about 0.078, lowest 2% from about -0.6 on). The list shows a part of the results.

B1: GBRAP_160_4186 (protein)
chain: SEEIEKLIKEIKEIAEEAIKLIEGQSHEERIVIVAGALGQIILLLSSSPIISDETVDKVAELADETIATLKANPNLTEEEIKELIKETTEKIIEIIKKSH
B2: GBRAP_128_3592 (protein)
chain: SMEEVKERTRKLLEEMKTADAATRKAIADELAEEFLTLTPEEQEAMAETIEELLPELSAEDLDILADAFRAAMPKADPEKANLLADIAVAALNEAVEKEE
B3: GBRAP_139_3736 (protein)
chain: DAAEAAVAEAVELARRSVEEGLAYVEELAAHLASLDEETAERALDAIAEVMKEESFETVDAFFDALEEALLTRHKNEDLAEMVEAARNRALAEVAVREEE
B4: GBRAP_160_4109 (protein)
chain: SEKVKKLIADFEAVAAEVLADAANLTPQQIANEFEVESGSVIMDAIEELGISHEVAEKLLEVVDKARAALLANTDRDLATITAILDAALAEIRKILEENE
B5: GBRAP_128_3404 (protein)
chain: SEEEKVEKAKELIEKIVEADVETARELAEELMELFGELSLEAQEKVKEYIEEALPKLTAEKLDVLADVLREKRPEFSPEAQEIINDWEVAALNAAEEKEE
B6: GBRAP_160_4616 (protein)
chain: SEKVEELIKEVEEEFEEAKEMVEGQTAEQRATIVDVTFGKIIIEADELEVVSDESLEKIDEIRDEVVDTILANPDLTDEEVKALIDEAKKKVIEIIEKDK
B7: GBRAP_128_3559 (protein)
chain: SVEERVEKAKELLEKIKNSDVEEARKYAEELAKLLEEADEESLEAIVETILERLPELSVEHLDVLADVFRERIPEADPRTAEALAEIQVEALNEAEEKEE
B8: GBRAP_26_5425 (protein)
chain: LDEAVERAIERISAAAAELLDPETAAAVRAVVTDELLEAEEEIEEEDLSEEEVEELLEEVLEEIEEDLEELGVPAEKRARLVAVAEEELEEVLEEWKEER
B9: GBRAP_184_5223 (protein)
chain: TLLREAVEATTAEELIAKADAVVDAAAAAGVDLVLTVIAKGLSVEEVRKVAAHLAELRDAGRIKDAILVVEDPKSEEEVDELVAIADENGIKLVIALSEE
B10: GBRAP_166_4969 (protein)
chain: MEEEIVKELKEFIDEKAEKMKTADHEEKLELLAEVAEKLGEAIKKGLSNENLKELVEYLIKKALEVGISPSEVEGALSIIADLDEEQIDILEEARKKVLA
B11: GBRAP_11_2759 (protein)
chain: KKEKLKEIAELAEKLAELLTKLLEEGVDNEELLAEAKKALEKLKELVEKYGDEDLKKLVKILEEEFKKALEDPENKEEHVQHARDTAAVISGQALLDYEE
B12: GBRAP_137_3638 (protein)
chain: PNVTITTETVDDLVKITIKFDDPEKAEEAKELIEDIAHEEGALALSIEINEDGTLDAEIWVPKEKAEKLINKLVEAFKTKFNATVTIINKDTGEVTTIKA
B13: GBRAP_184_5117 (protein)
chain: KVLEHTIKAKDVAEAKEKLAAVREEAAASKATVVVVVEVENPTVELAKAIIAEAAAIREAGAKDVLLEIVGDNITDEVIDAIVAAADAAGLDNVVIARTE
B14: GBRAP_184_5201 (protein)
chain: AVKEFTIKFENLEELKEKLKELLEELKGFKGDIYIIVEAEEITKEMAEEIVKFLKEVKEKGYATSVTVDIEGKISEEVEDFLLKKSKELGVKVVIALDEE
B15: GBRAP_45_5812 (protein)
chain: SEEAEKARQKAIEALNKAIKLVEEDERIPEETKEKILEHLKKALELLQQPDLNEELVDEALKHVDEALKLLASEPNVSGELVDAVEDAAEYLAELGDLLE
B16: GBRAP_160_4299 (protein)
chain: MEKLEELKEEIEEIAEEAIEMIEGETPEQRKTIVRVAMGDIILLAEENPEVSDEAEEEIAKVADETEETIDANPDLTEEEVKELIEEAREKVLEIIEKLE
B17: GBRAP_26_5443 (protein)
chain: IEELIDEVEEKLLEAIDELLPPELAGPAKASLLTILEELEEKLKENKNDFEKQEKIAEEALEEFEEDLEELGVPEEEREKLVELLEEELKKLLKKIKEEK
B18: GBRAP_184_5032 (protein)
chain: MVIEEEIEAENLEELKEKLEELEKKVEGKKADLIVSLNIKNPTEEMIKTALAMLGKMKKEGKVTSVTVGFKNLLSEELIDVALKAADENGVKVVLPISEE
B19: GBRAP_160_4815 (protein)
chain: MEKVKKLLEEARKDLLDTAEASKDLPIEDRAALLRAEGYTAILELKEELNLSDETEDKLVEIVDDLVATLLANPDLTPEEVLALVEEAHERMEEIVLKEA
B20: GBRAP_184_5281 (protein)
chain: KVEEVEIDAETAEEAIEELEKAAKEAKAKGAKLKLNILLRNASLEGVKELFKLLKELKEQGIIESATVGLEREVSEEELDELLKAADEAGVKLVVAIPDE
B21: GBRAP_9_7176 (protein)
chain: LKEAADAAIKGAKEAKEFILEVVPEEEKEKIKEAFDEFIKKLEEMKADPNVTKEEFEKKLEEGIEKIIKLAKENLTPEIAAIVETELLTIEDEVDELLDE
B22: GBRAP_160_4403 (protein)
chain: SEEYEKLAKEVEELIAETKELIEGETPEQRKVIIRVMVGDILLAAEENPAVTDEQEEEIAALLDASLAAILAAVDKGLEAVKAALDALLAELKALIEKYK
B23: GBRAP_11_2677 (protein)
chain: KKEELKKIAELARKLAEAIEKLLKEGVDNEELRKEIEKLLEELEKLAKKHADKGIQTLVEIAKELWKEAKENPEKAEEYLKLLLAAVRVLAANVEEEIDE
B24: GBRAP_160_4758 (protein)
chain: KEELKKLKEEVKEIFEEYLEMLKEVPASEAPTVVRGAMGEVIMEVMSSEAASEELEEKIGEIADEAEAEAAANADAPVEYHIAILEEAKEKVLKLIEEEI
B25: GBRAP_14_3877 (protein)
chain: MEEIEEAIEEAREELKEFFESLDPEKAERAKEAVDEIFEEMLEEIKKTGKYREALEKARERLLAELEEILADAPAEERAAALAEVAVTLAELEEEIDELL
B26: GBRAP_184_5054 (protein)
chain: KIFEREIEAENKEELEKKLEELEEEVKNHKGDLIVTVKIPKFTKEMIELIMKRAKEILEKGYAKRITIGLDGDMSEEVVDLALELADKAGVNVVIALDEE
B27: GBRAP_39_5685 (protein)
chain: EEEEEDENVVSYLEGLAAARLYETGKSLEELFEEAKKILKALAKEEPELKELIEELIELAEKKGDEAKLALIGIAVLVEEGTPLEEIKENIEKVINYFKK
B28: GBRAP_78_6698 (protein)
chain: ELEEIIEEAIKLVGEAARLTKALPADARNELLDLLVDAASDLLEAEENGGDLEELKEALKHLKEALALADALNDPRAEPLRELLEKAIKLVEEAIKLVEK
B29: GBRAP_160_4846 (protein)
chain: SEKLKKVKEELEEAREFVLSLVDEVSVEDVAKFARAELGSTALYLYEKGYINEEALDAILEEADELEEELLANKDASKEEIKAIIKEKVERAIKKVEKLL

Molecular target: GABARAP, O95166
Experiment: median log2 fold change of GCK-ALFA target abundance (FLAG IP / Myc IP barcode read proportion) (log2 ratio); each designed protein is fused to an ALFA-tag nanobody in HEK293 cells to bring the named protein to FLAG-tagged glucokinase (GCK); Myc marks an untargeted standard; higher = target protein stabilised (more abundant)
Settings: target protein: 3xFLAG-MCP-GCK-ALFA reporter; HEK293 landing pad (RPLP)
Procedure, shortened: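 Binders fused to an ALFA nanobody were recombined as a library into HEK293 landing-pad cells, which were induced with 2 μg mL^−1 doxycycline and then transfected to express a FLAG-tagged target and a Myc-tagged standard. After 48 h, circular RNA barcodes recovered by anti-FLAG and anti-Myc immunoprecipitation of lysates were reverse transcribed, amplified and sequenced. Each binder's target abundance is the median log2 ratio of FLAG to Myc barcode read proportions, from barcodes present at ≥10^−7 in both replicates, binders carrying ≥3 barcodes per replicate, a 10^−6 pseudocount and pooled replicates.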

GABARAP, O95166, sequence (O95166 whole entry, the tested form may be a part): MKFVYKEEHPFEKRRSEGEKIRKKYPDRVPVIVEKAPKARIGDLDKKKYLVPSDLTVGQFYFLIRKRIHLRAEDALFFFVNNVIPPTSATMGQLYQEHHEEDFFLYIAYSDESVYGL

**Q.** With B1 as the binder, how does the “median log2 fold change” value read?
**A.** The value was 0.231.

**Q.** B2 was tested. Which “median log2 fold change” value did it give?
**A.** Its value is 0.0657.

**Q.** B3 was tested. Which “median log2 fold change” value did it give?
**A.** Its value is 0.209.

**Q.** With B4 as the binder, how does the “median log2 fold change” value read?
**A.** Its value is 0.136.

**Q.** How did the “median log2 fold change” value turn out when B5 was run?
**A.** Its value is 0.27.

**Q.** For B6, which “median log2 fold change” value is on record?
**A.** Its value is 0.254.

**Q.** For B7, which “median log2 fold change” value is on record?
**A.** Its value is 0.095.

**Q.** Which “median log2 fold change” value does the source give for B8 here?
**A.** Its value is -0.608.

**Q.** For B9, which “median log2 fold change” value is on record?
**A.** Its value is -0.0259.

**Q.** How did the “median log2 fold change” value turn out when B10 was run?
**A.** The value was 0.281.

**Q.** Which “median log2 fold change” value does the source give for B11 here?
**A.** Its value is 0.312.

**Q.** For B12, which “median log2 fold change” value is on record?
**A.** The value was 0.192.

**Q.** For B13, which “median log2 fold change” value is on record?
**A.** The value was 0.329.

**Q.** For B14, which “median log2 fold change” value is on record?
**A.** Its value is 0.0646.

**Q.** Which “median log2 fold change” value does the source give for B15 here?
**A.** Its value is 0.275.

**Q.** B16 was tested. Which “median log2 fold change” value did it give?
**A.** The value was -0.297.

**Q.** Which “median log2 fold change” value does the source give for B17 here?
**A.** Its value is 0.00424.

**Q.** Which “median log2 fold change” value does the source give for B18 here?
**A.** Its value is 0.231.

**Q.** For B19, which “median log2 fold change” value is on record?
**A.** Its value is 0.00395.

**Q.** Which “median log2 fold change” value does the source give for B20 here?
**A.** The value was -0.00895.

**Q.** Which “median log2 fold change” value does the source give for B21 here?
**A.** The value was 0.0747.

**Q.** How did the “median log2 fold change” value turn out when B22 was run?
**A.** Its value is -0.455.

**Q.** Which “median log2 fold change” value does the source give for B23 here?
**A.** Its value is 0.211.

**Q.** Which “median log2 fold change” value does the source give for B24 here?
**A.** The value was -0.0284.

**Q.** Which “median log2 fold change” value does the source give for B25 here?
**A.** The value was 0.0558.

**Q.** For B26, which “median log2 fold change” value is on record?
**A.** The value was 0.179.

**Q.** Which “median log2 fold change” value does the source give for B27 here?
**A.** Its value is -0.604.

**Q.** For B28, which “median log2 fold change” value is on record?
**A.** The value was -0.0276.

**Q.** With B29 as the binder, how does the “median log2 fold change” value read?
**A.** The value was 0.306.
